The labels stand for the following.
T1: UNK ZnF1-3 (human, UniProt Q9C0B0 31-174)
T1 sequence: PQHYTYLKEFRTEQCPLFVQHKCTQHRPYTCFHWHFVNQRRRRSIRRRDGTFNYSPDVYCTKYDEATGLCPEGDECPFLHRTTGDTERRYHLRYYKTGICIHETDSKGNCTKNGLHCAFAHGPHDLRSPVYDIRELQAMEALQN

B1: chr5:37680062:37680063:+_ENSMUSG00000029121_ENSMUST00000031004|mus_hu|FALSE|FALSE (ssRNA)
RNA: GGGAGUUCUACAGUCCGACGAUCUUUGGGUGUAGCUGGUACCUCGUACACAGGACCGUCAUACAUGCCCCUGGAAACCCCUUGCAAUCCAAAAACCUUAUUCCUGAUUUUGACGCGCUGGUACAGGUGCUCCGGGAACGCCUUCAACAGAGGAUUGAGCAUCA
B2: 109148981_109149101_239_3pUTR_ENSMUSG00000028557_ENSMUST00000030284|mouse|control|control (ssRNA)
RNA: GGGAGUUCUACAGUCCGACGAUCCCGGCGCCACCGAGGGGCCGCUCAUGCCAGCCCCCGGGACAGGGGGCGCGAGGCUAGGCCGCGGGCUGCGCCGGGGUCGCGUCUGGAACCUGAGGGGGGCGGGGGCGGGAAGACUGAGCGCAACAGAGGAUUGAGCAUCA
B3: chr14:63888807:63888808:-_ENSG00000154001_ENST00000337537|hu_mus|FALSE|FALSE (ssRNA)
RNA: GGGAGUUCUACAGUCCGACGAUCUUCAUUGCUGUCACUAGGAGGGAGAGUUCUGAAUAUAUUGCAAGAUACCAUUCUAACUACUUCAGGGUAAGUCUGCUCUGUCAGACAGCCUCUGCUUAUUGUAAUGUAGUCCACCAGUUCCAACAGAGGAUUGAGCAUCA
B4: 128976402_128976621_833_CDS_ENSG00000181789_ENST00000314797|human|control|control (ssRNA)
RNA: GGGAGUUCUACAGUCCGACGAUCGUGCUUGUUGCGCAAGCAGCUCUCGAUGAAGUCAAACAGUGGGCUGUCACGGCUGCCAUCCUCCUCUUCCAGCUGCUUGCUGGCCACCCGGAUCAUCAUGCAGUAGGCAAAGGGAGACUUCAACAGAGGAUUGAGCAUCA
B5: chr4:103717771:103717772:-_ENSG00000109332_ENST00000394803|hu_hu|FALSE|FALSE (ssRNA)
RNA: GGGAGUUCUACAGUCCGACGAUCUCCAGGCAGCUAACUCAUUGGUUUAUGCAACUUUAUUGAAGAAAAAUAAAUCAAUUACUAGCAGAGCUAUUAGUUGAUCACUCAUCCAUUGACAACUUGCAUCAUUUAUUCAGUGCUAUACAACAGAGGAUUGAGCAUCA
B6: chr13:55348081:55348082:+_ENSMUSG00000021488_ENSMUST00000099490|mus_hu|FALSE|FALSE (ssRNA)
RNA: GGGAGUUCUACAGUCCGACGAUCAUCCACUUUCCCACUUUUAGAAAUGCUGGCCAAAGGAGAGCCUUUGGUAUCAGAAGAGCAGCAUUUCAAACUGCACUCCUCAUUUAUAACUGGGGGUUCUGCCAUAACUGGAUUUUCUUUCAACAGAGGAUUGAGCAUCA
B7: 37429575_37429695_12100_3pUTR_ENSMUSG00000026915_ENSMUST00000028279|mouse|control|control (ssRNA)
RNA: GGGAGUUCUACAGUCCGACGAUCCUGCACUUUCUUCUGCUCACAGAUGUCCCUGCCAAGGACCCUUCCAGAAUCCCCUCAUUGCUCUGUGCUGUCCCAUCUAAAGGCCUGCGGACUUGGACCAGGGCUACUGCAAUUGUGACUCAACAGAGGAUUGAGCAUCA
B8: chr3:193353255:193353256:+_ENSG00000198836_ENST00000392438|hu_hu|motif|central (ssRNA)
RNA: GGGAGUUCUACAGUCCGACGAUCAAUCAAAGAUUUCUUAAGCUUUCUAUGAUGAAUGCCUUUGUCAUCUUUCUGCAAUACGGAUUUUCUCAAUUCUUUGUUCUCCUUUUCUAAUCGUUCCAAGAUUCUCUGAUACUUCAACUGCAACAGAGGAUUGAGCAUCA
B9: chr1:52223104:52223105:-_ENSMUSG00000026103_ENSMUST00000114513|mus_mus|FALSE|FALSE (ssRNA)
RNA: GGGAGUUCUACAGUCCGACGAUCAUCAUCAGAAUCCCCUUGAGGUGUGUACUGAACUUGGUAUUCCUGAAGGAUUUUAAAAACAUCAUGGUGUCCAAAGUGUAGUGCUUCAUCCAUGGGGGUAUUAUUCCACCUGUCCUUGGGCAACAGAGGAUUGAGCAUCA
B10: chr1:220276048:220276049:+_ENSG00000067704_ENST00000302637|hu_hu|hu_hu_hu_mus_True|8_98 (ssRNA)
RNA: GGGAGUUCUACAGUCCGACGAUCGCAAAUUGCCUGGUUGGCUGGAAUUGUCCAAGGCUGGGUGGUCCAAACUAAAACGCUAACAGGGGAUGAGGCAUCUGUAAGAGACUCCAACUUCGGAGGAGGUUUUAAGAGAGGGAAUCUCAACAGAGGAUUGAGCAUCA
B11: chr1:93301758:93301759:+_ENSG00000122406_ENST00000370321|hu_mus|FALSE|FALSE (ssRNA)
RNA: GGGAGUUCUACAGUCCGACGAUCGUAUUCACCUCCAUUCACCUCCACUUGGCCUUCAUAGAUCUUGUCCAUGCCAAACCUAUUCAGAAGCCUGCGGGCCAGCAGCAGGCCAGUGCAAUAGGCUGCAGCAUAAUUUGUCAGGCCCAACAGAGGAUUGAGCAUCA
B12: chr12:80258887:80258888:-_ENSMUSG00000021124_ENSMUST00000055262|mus_mus|FALSE|FALSE (ssRNA)
RNA: GGGAGUUCUACAGUCCGACGAUCAUUUACCAGUCUGCUCUUAGUACGUUCCAACUGGUCUCGUUGCUCCCCCAACUCUUCUAUGAUUUCUGUACCAAUUUGAUCAGUUUCUGUGGCAAUCCGAUGAGAACGCUCAAUGCUUUGCAACAGAGGAUUGAGCAUCA
B13: chr5:145543945:145543946:-_ENSG00000133706_ENST00000545646|hu_hu|hu_hu_hu_mus_True|8_108 (ssRNA)
RNA: GGGAGUUCUACAGUCCGACGAUCCUGAAUAGCCAGUGGUGGGAAAUAAUCAAGCCAGUGCUCUGCUUCAGAAAACUUCACUAUGUCGUCAUCAGAGAGCCCAAGGGAUUUCAUAAUGUCCCACUGGUAUUUAGAAGAUCCUGCCAACAGAGGAUUGAGCAUCA
B14: chr2:207631934:207631935:+_ENSG00000118246_ENST00000403094|hu_hu|FALSE|FALSE (ssRNA)
RNA: GGGAGUUCUACAGUCCGACGAUCCUUCUGGUCAUCAGACAGUCUUUUGGCAAUUGUCCACAUUGCUGUGAAAUAGUUGCUACUAGGAAAUGUGGGCGCUUUUGAAAAUGCAUCUAACACAUCACUCAGGGAAUUACAUUCCUCCAACAGAGGAUUGAGCAUCA
B15: chr15:76912013:76912014:-_ENSMUSG00000033565_ENSMUST00000166610|mus_mus|motif|central (ssRNA)
RNA: GGGAGUUCUACAGUCCGACGAUCGCUCUCAGUGCUCACCCUGAAAUCCAACGACCUUUGCAUAAAAAGCCAACUCCAUCGGGUCUUCCUUGGAAAAGGGCCUGAGGAAGUGGCAUCGGAGAGUGUCCUUGUCCACGCAGCAGACAACAGAGGAUUGAGCAUCA
B16: chr2:157388114:157388115:+_ENSMUSG00000067786_ENSMUST00000109526|mus_hu|FALSE|FALSE (ssRNA)
RNA: GGGAGUUCUACAGUCCGACGAUCUUGUAGAGGUGGUCCCUGUCCUCCAGGAGCUUACAAUCUAGCUGGGGAGACACAACUAAUGCACACUUAAACAAUCAGUACAAUUAGCGAUUACCACAAUAUUGACCACAACUGCAUGAGCAACAGAGGAUUGAGCAUCA
B17: 102547537_102547657_768_3pUTR_ENSMUSG00000020925_ENSMUST00000092569|mouse|control|control (ssRNA)
RNA: GGGAGUUCUACAGUCCGACGAUCGAAAUUUUGGAAAAUACAUUAGUCUCAGUUCUCUUAAAUACACAGACACACAAUUCAUGGGUGGAAGGAGCAGAGUGGGCCAAGGUUAUCGCUUCCGUUCGCCUUUCUGUGUCCUUUUCUCAACAGAGGAUUGAGCAUCA
B18: 102335738_102335858_654_3pUTR_ENSMUSG00000023050_ENSMUST00000169377|mouse|control|control (ssRNA)
RNA: GGGAGUUCUACAGUCCGACGAUCAAAGGCUCUGGGGGAGGCUCUCCACCUGGGGAGGGGCUGGGUCCUCCUCCACCCUGCCCACCGAGAGGCACAACAUCUCGAAGUACACAUUGGGUGGGCGUCAGGUCUUUCUCGGGGGUGCAACAGAGGAUUGAGCAUCA
B19: chr2:120799606:120799607:+_ENSG00000115109_ENST00000263713|hu_hu|FALSE|FALSE (ssRNA)
RNA: GGGAGUUCUACAGUCCGACGAUCGUACAUAAUCUGAUCAAACAACUCUUGUCCUUUGGCUUUUUUUGGCAAGUCCACACUAACAUCAGUACCAUCCAGAAGGGACACCCGACACGUGAUGAUGGACUUAGAAUCUCCAGCUGCCAACAGAGGAUUGAGCAUCA
B20: chr3:176740097:176740098:-_ENSG00000177565_ENST00000430069|hu_mus|hu_hu_hu_mus_True|18_38 (ssRNA)
RNA: GGGAGUUCUACAGUCCGACGAUCUGUUUUGUAUACCACAAAAGGAGGCACUUUCAGUAUCUGCAAAAGGUGUUUAGUCCUAAAACAUACUCACCUAGAGAAUAAUUCAGGAAAACAUCAAUACAAUCUCUAAGACCUACUCCACAACAGAGGAUUGAGCAUCA
B21: chr14:58718896:58718897:+_ENSG00000100567_ENST00000216455|hu_mus|FALSE|FALSE (ssRNA)
RNA: GGGAGUUCUACAGUCCGACGAUCUCGAUCAACAUUAAAAAGACGUUUAUUGGAGCCUUCUUCAUAAAGUUUAGAAAGGACUAGUUUUUCUACCCCAAACACAACACCAUCUUUACAUCUGAUCCCAAUAGCUGUACUACUGUUCAACAGAGGAUUGAGCAUCA
B22: chr7:54823571:54823572:-_ENSG00000132432_ENST00000352861|hu_mus|hu_hu_hu_mus_False|1_1 (ssRNA)
RNA: GGGAGUUCUACAGUCCGACGAUCUCCCAUGAUAGCAAAUCCUAUAGCUGUAGCCAUGGCAAUCUUCUGGAAUUCUUUUCUGUCGGGUUUGGUGCAUCUUUUAACCAGCCGAAUUGAGUCCUUUACAAACUGCCGGCUUGGCUCCAACAGAGGAUUGAGCAUCA

This is one part of the list.

This experiment deals with T1, UNK ZnF1-3. Put plainly: nsRBNS (natural sequence RNA bind-n-seq); RBNS binding buffer (assumed for nsRBNS): 25 mM Tris pH 7.5, 150 mM KCl, 3 mM MgCl2, 0.01% Triton X-100, 500 ug/ml BSA, 20 U/ml SUPERase-In, 4 C; UNK is unkempt and MSI1 is Musashi-1; names of the RNAs are library labels; protein concentration not given here; high values mean tight binding.
B1: the binding signal was determined as 0.759 enrichment R.
Next, B2: 0.694 enrichment R; B3: 0.865 enrichment R; B4: 0.569 enrichment R.
With B5 the figure was 0.774 enrichment R; with B6, 0.764 enrichment R; with B7, 0.898 enrichment R.
Next, B8: 0.445 enrichment R; B9: 1.15 enrichment R; B10: 2.09 enrichment R.
In turn, B11 gave a binding signal of 0.905 enrichment R.
B12: the binding signal was found to be 0.591 enrichment R.
In turn, B13 showed a binding signal of 0.925 enrichment R.
Molecule B14 registered a binding signal of 0.852 enrichment R.
With B15 the figure was 1.1 enrichment R; with B16, 1.6 enrichment R; with B17, 0.781 enrichment R.
With B18 the figure was 0.554 enrichment R.
With B19 the figure was 1.12 enrichment R; with B20, 0.604 enrichment R; with B21, 0.942 enrichment R.
Molecule B22 showed a binding signal of 0.771 enrichment R.

For the origin of these results see publication PMC12136788.
